Hit rate of the full screen: of about 360,000 compounds, about 2,600 (0.72%) were called active. Inconclusive means that the source gave no clear call. Such entries were picked first, then a sample of the others. Calls follow the shape of the dose curve; as a rule, active = well fitted inhibition curve with a large enough effect; inconclusive = small, poorly fitted or top-dose-only effect; inactive = no such curve, though single readings can be large or run the other way. Where the call is inconclusive, the potency comes from a doubtful curve fit.
Assay: Primary qHTS for Inhibitors of ATXN expression; also: nearly all actives have a fitted effect of over 55% in size
Settings: HEK-293 ATXN2-luciferase reporter, luminescence, 24 h; activity change, negative = inhibition: at 57 µM (top of the series)
Method in brief: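 ATXN2-luciferase reporter cells (luciferase flanked by upstream and downstream ATXN2 gene portions) were treated 24 h at 37 °C with compounds at up to 57 uM. SteadyGlo luminescence gave expression; GF-AFC fluorescence gave viability.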
% is scaled to controls: 0 for no effect and ±100 for the full control effect; potency is read from the fitted curve at half-maximal effect; tags tell the direction and shape of the fitted curve.

| Structure (SMILES) | Potency | activity change, negative = inhibition |
| --- | --- | --- |
| CCC(=O)NC(=S)NNC(=O)c1ccc(OC)cc1 | inconclusive: 20 µM [inhibitor, single point] | – |
| COc1ccc(CNc2cc(-c3ccc(OC)cc3)nc3nncn23)cc1 | inconclusive: 20 µM [inhibitor, partial curve, poor fit] | – |
| Clc1ccc(C2=Nn3c(Cn4nnc5ccccc54)nnc3SC2)cc1 | – | inactive: -18.4% |
| COC(=O)c1ccc(C2C(Oc3ccccc3)C(=O)N2CCc2ccc(F)cc2)cc1 (centres undefined) | inconclusive: 25.1 µM [inhibitor, single point] | – |
| O=C(COc1ccccc1Br)NCCc1nc2ccccc2[nH]1 | – | inactive: 6.65% |
| CCN(CC)CCCNC(=O)c1cc2c(-c3ccc(Cl)cc3)nn(C)c2s1 | active: 25.1 µM | – |
| NS(=O)(=O)c1ccc(N/N=C/c2ccncc2)cc1 | – | inactive: -7.16% |
| O=C(c1cccc(S(=O)(=O)N2CCCC2)c1)N1CCCC(C(F)(F)F)C1 (centres undefined) | – | inactive: 5.07% |
| CO[C@H]1C(=O)[C@]2(C)[C@@H](OC)C[C@H]3OC[C@@]3(OC(C)=O)[C@H]2[C@H](OC(=O)c2ccccc2)[C@]2(O)C[C@H](OC(=O)[C@H](O)[C@@H](NC(=O)OC(C)(C)C)c3ccccc3)C(C)=C1C2(C)C | inconclusive: 0.0014 µM [inhibitor, partial curve, poor fit] | – |
| N#C/C(=C\c1cc2ccccc2nc1N1CCOCC1)C(=O)Nc1ccc(N2CCOCC2)cc1 | – | inactive: -1.88% |
| CCOC(=O)c1c(NC(=O)CSc2nnc(-c3c[nH]c4ccccc34)n2CCOC)sc2c1CCCCC2 | inconclusive: 15 µM [inhibitor, partial curve, poor fit] | – |
| CC(C)CC1C(=O)N(Cc2cn(Cc3ccco3)nn2)CCS(=O)(=O)N1Cc1ccc(-c2ccc(F)cc2)cc1 (centres undefined) | inconclusive: 22.4 µM [inhibitor, partial curve] | – |
| COc1cc2c(Nc3ccc(Cl)c(Cl)c3F)ncnc2cc1OCC1C[C@@H]2CN(C)C[C@H]2C1 | active: 30.6 µM | – |
| COc1ccc(-c2oc(NC(=O)CCl)c(C#N)c2-c2ccc(OC)cc2)cc1 | active: 17.8 µM | – |
| Cc1cc(C(=O)Nc2cccc(O)c2)co1 | – | inactive: 1.56% |
| CCCCC(NC(C)=O)c1nc2ccccc2n1CCC (centres undefined) | – | inactive: -17.3% |
| Clc1ccc(C2Nc3ccccc3-n3cccc32)cc1 (centres undefined) | – | inactive: -18% |
| CCCCNc1c(-c2ccc(OC)c(SC3CCCCC3)c2)nc2ccc(C)cn12 | active: 25.1 µM | – |
| CCn1c(O)c(/C=C2\C=Nc3ccccc32)sc1=Nc1ccc(C)cc1 | inconclusive: 20 µM [inhibitor, single point] | – |
| O=C1CC(N(CCc2ccccc2)C(=S)Nc2ccccc2)C(=O)N1c1ccc(Br)cc1 (centres undefined) | inconclusive: 28.2 µM [inhibitor, single point] | – |
| CC(C)(C)OC(=O)NCc1ccc(CNC(=O)c2nc[nH]c2C(=O)NCc2ccccc2)cc1 | – | inactive: -23% |
| Cc1ccc(CN2CCNCC2)cc1NC(=O)CNc1ccc(F)c(F)c1 | inconclusive: 21.7 µM [inhibitor, partial curve, poor fit] | – |

| Structure (SMILES) | Potency | activity change, negative = inhibition |
| --- | --- | --- |
| Cc1c(NC(=O)c2ccc(N(C)S(=O)(=O)c3ccccc3)cc2)c(=O)n(-c2ccccc2)n1C | inconclusive: 7.52 µM [inhibitor, partial curve, poor fit] | – |
| NCC1CCN(c2nc3ccccc3c3c2CCCC3)CC1 | inconclusive: 25.1 µM [inhibitor, single point] | – |
| C[C@H](NC(=O)c1ccccc1)C(=O)Nc1nc(-c2ccccn2)cs1 | inconclusive: 16.8 µM [inhibitor, single point] | – |
| N#CC(=C(O)c1ccc(Cl)cc1Cl)c1nc2cc(Cl)ccc2c(=O)[nH]1 | inconclusive: 9.68 µM [inhibitor, partial curve] | – |
| COc1cccc(C(=O)NC(=S)N2CCN(c3ccc(C(F)(F)F)cc3[N+](=O)[O-])CC2)c1 | – | inactive: -17.7% |
| COc1cccc(C(=O)Nc2ccc3nc(N4CCC(C)CC4)cc(C)c3c2)c1 | inconclusive: 12.6 µM [inhibitor, partial curve, poor fit] | – |
| COc1ccc(C)cc1Nc1nc(C)nc2sc(C)cc12 | inconclusive: 15.8 µM [inhibitor, single point] | – |
| CCCc1nc2ccc(Cl)cn2c1Cc1ccccc1OC | inconclusive: 39.8 µM [inhibitor, single point] | – |
| CCCSS/C(CCO)=C(\C)N(C=O)Cc1cnc(C)nc1N | inconclusive: 31.6 µM [inhibitor, partial curve] | – |
| O=c1c(C=NCc2cccnc2)c(C(F)(F)F)[nH]n1-c1nc2ccccc2s1 | inconclusive: 15.8 µM [inhibitor, single point] | – |
| CC(C)c1ccc(NC(=O)N2CCc3ccccc3C2)cc1 | – | inactive: 80.1% |
| COc1ccc(C2CC(=O)N(c3ccccc3)C3=C2C(=O)CCC3)cc1 (centres undefined) | inconclusive: 18.9 µM [inhibitor, partial curve, poor fit] | – |
| Cc1ccccc1C(=O)N1CCc2cc(-c3nc(NC(=O)Cc4ccc5c(c4)OCO5)sc3C)ccc21 | inconclusive: 1.58 µM [inhibitor, partial curve, poor fit] | – |
| O=C(CSc1cn(CCNC(=O)c2ccc3ccccc3c2)c2ccccc12)NCc1ccco1 | inconclusive: 22.4 µM [inhibitor, single point] | – |
| Cc1ccc(NC(=O)Cn2nc(C)c([N+](=O)[O-])c2C)cc1Cl | inconclusive: 21.2 µM [inhibitor, single point] | – |
| O=C(c1cccs1)N1N=C(c2ccccc2)CC1c1ccccc1 (centres undefined) | inconclusive: 22.4 µM [inhibitor, single point] | – |
| CCOc1ccc(Cl)cc1CNCCNCC(C)O (centres undefined) | – | inactive: 0% |
| O=C1OC(c2ccc(F)cc2)=N/C1=C\c1ccc(Br)o1 | – | inactive: -16.1% |
| CC(O)CC(C(=O)NNc1ccccc1)C(=O)NNc1ccccc1 (centres undefined) | inconclusive: 2.82 µM [inhibitor, partial curve, poor fit] | – |
| COc1ccc(-c2n[nH]c(=S)n2-c2ccc(Br)cc2)cc1OC | – | inactive: 34.5% |
| OCc1ccc(O)c2ncccc12 | inconclusive: 39.8 µM [inhibitor, partial curve, poor fit] | – |
| COc1ccc2c(c1)[nH]c1c(N3CCSCC3)ncnc12 | inconclusive: 1.78 µM [inhibitor, full curve, poor fit] | – |

— PubChem BioAssay AID1745845 (National Center for Advancing Translational Sciences (NCATS), 2022)
